# Data taken from PubChem BioAssay AID1476 (National Center for Advancing Translational Sciences (NCATS), 2009).
# The campaign covered roughly 200,000 compounds. About 4,500 (2.2%) were called active. This list was built around the results that the source calls inconclusive (neither active nor inactive); the mix of calls is not that of the screen. The call rests on the fitted dose curve; in most records, active means well fitted inhibition curve with a large enough effect; inconclusive means small, poorly fitted or top-dose-only effect, or effect the other way; inactive means flat fitted curve, though single readings scatter. Potencies of inconclusive entries are doubtful fits and often do not repeat.
# Biological target: Cruzipain (Trypanosoma cruzi) (UniProt P25779)
# Sequence of UniProt P25779 (P25779 whole entry, looked up): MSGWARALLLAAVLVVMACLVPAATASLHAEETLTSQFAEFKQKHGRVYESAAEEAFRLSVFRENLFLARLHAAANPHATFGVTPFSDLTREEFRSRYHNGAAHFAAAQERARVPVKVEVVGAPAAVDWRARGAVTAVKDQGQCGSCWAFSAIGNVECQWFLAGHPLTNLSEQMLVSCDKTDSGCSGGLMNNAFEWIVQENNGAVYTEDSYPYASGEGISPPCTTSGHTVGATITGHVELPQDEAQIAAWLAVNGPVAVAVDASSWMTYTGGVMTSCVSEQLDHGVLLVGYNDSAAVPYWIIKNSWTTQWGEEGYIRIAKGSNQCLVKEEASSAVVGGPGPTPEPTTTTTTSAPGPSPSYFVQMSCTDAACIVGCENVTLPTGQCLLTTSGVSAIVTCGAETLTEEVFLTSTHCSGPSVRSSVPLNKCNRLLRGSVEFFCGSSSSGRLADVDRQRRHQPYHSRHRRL
# Assay: qHTS Assay for Promiscuous and Specific Inhibitors of Cruzain (without detergent); further: nearly all actives have a fitted effect of over 40% in size;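 on max response, negative = inhibition: plate controls were enzyme without inhibitor for no effect and buffer without enzyme for full effect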
# Conditions: purified cruzain, Z-FR-AMC fluorescence, no detergent
# Outline: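 Purified cruzain at 1.5 nM, pre-incubated 15 min with compound at room temperature in 100 mM sodium acetate pH 5.5, 5 mM DTT, 0.00005% Triton X-100. Reaction started with 2 uM Z-FR-AMC; AMC fluorescence increase over 60 s gives rate.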
# Potency means the concentration at half of the fitted maximal effect; tags describe the fitted curve by direction and shape.
Compound,"max response, negative = inhibition",Potency
COCC(=O)N1CCC2(CCCN(C(=O)Nc3ccccc3)C2)CC1,inactive: 5.31%,–
O=c1cc(-c2ccccc2)c2ccc(O)c(CN3CCCCC3)c2o1,–,"inconclusive: 15.8 µM [inhibitor, partial curve]"
CC(=O)Nc1ccc(S(=O)(=O)NCC(=O)OCC(=O)c2cc(C)n(-c3ccc4c(c3)OCO4)c2C)cc1,–,"inconclusive: 25.1 µM [inhibitor, single point]"
Cc1cccc(CSc2nc(N)c(C#N)c(-c3cccs3)c2C#N)c1,–,active: 25.1 µM
Cc1cccc(C)c1OCC(=O)OC/C(O)=C(\C#N)c1nc2ccccc2[nH]1,–,"inconclusive: 25.1 µM [inhibitor, single point]"
COc1cccc(-c2cc(C(=O)N3CCN(c4ccccc4OC)CC3)no2)c1,–,"inconclusive: 31.6 µM [activator, single point]"
COC(=O)Cn1c(C(=O)N(C)C)cc2c1C[C@H]1CN(C(=O)c3ccccc3)[C@@](Cc3ccc(F)cc3)(C(=O)OC)[C@@H]21,–,"inconclusive: 12.6 µM [activator, partial curve]"
CCCCN(C(=O)CCC(=O)Nc1cc(C)on1)C(C(=O)NC(C)(C)C)c1cccc(OC)c1OC (stereo not drawn),–,"inconclusive: 31.6 µM [activator, partial curve]"
Cn1c(=O)c2c(nc(CN3CCN(C(=O)c4ccco4)CC3)n2CCc2ccccc2)n(C)c1=O,–,"inconclusive: 39.8 µM [activator, single point]"
Cc1cc(/C=C2/SC(=O)N(CC(=O)N3CCOCC3)C2=O)c(C)n1-c1ccccc1F,–,"inconclusive: 39.8 µM [activator, single point]"
CCOC(=O)c1c(C)[nH]c(C)c1S(=O)(=O)N1CCC(C(=O)N2CCN(c3cccc(C)c3C)CC2)CC1,–,"inconclusive: 31.6 µM [activator, single point]"
COc1ccccc1-c1nc2c(c(SCc3ccc(F)cc3Cl)n1)Cc1c(CO)cnc(C)c1O2,inactive: -2.88%,–
O=C(Nc1ccc(F)cc1)c1ccc(Cn2nc(N3CCN(c4ccccc4)CC3)ccc2=O)o1,–,"inconclusive: 25.1 µM [activator, single point]"
COc1ccc(C2C(C(C)=O)=C(C)N=c3s/c(=C\c4cc(C)n(C)c4C)c(=O)n32)c(OC)c1 (stereo not drawn),–,"inconclusive: 20 µM [activator, partial curve]"
CCN(CC)C(=O)CSc1nnc(CNc2ccc(F)cc2)n1-c1ccccc1,–,"inconclusive: 31.6 µM [activator, single point]"
COc1ccc(NC(=O)C2CCCN(C(=O)c3cnn(-c4ccccc4)c3-n3cccc3)C2)cc1 (stereo not drawn),–,"inconclusive: 39.8 µM [activator, single point]"
CC(O)CNC(=O)C(=O)Nc1c2c(nn1-c1ccc(Cl)cc1)CSC2 (stereo not drawn),–,"inconclusive: 31.6 µM [activator, single point]"
COC(=O)Cn1c(CN(Cc2ccccc2)Cc2ccccc2)nc2c1c(=O)[nH]c(=O)n2C,–,"inconclusive: 39.8 µM [activator, single point]"
COc1ccc(-c2cc(-c3ccccc3)c(C#N)c(SCC(O)CS(=O)(=O)Cc3ccccc3)n2)cc1 (stereo not drawn),–,"inconclusive: 7.94 µM [inhibitor, single point]"
COc1ccc(N=Cc2cc3c(cc2O)OC(N)=C(C#N)C3c2ccccc2)cc1 (stereo not drawn),–,"inconclusive: 31.6 µM [inhibitor, single point]"

Compound,"max response, negative = inhibition",Potency
CCOC(=O)C(NC(=O)Nc1cccc(C)n1)(OCC(F)(F)F)C(F)(F)F (stereo not drawn),–,"inconclusive: 31.6 µM [activator, single point]"
COc1ccccc1N1CCN(CCCNC(=O)c2nnc(Cc3c(F)cccc3Cl)o2)CC1,inactive: -17%,–
CCCn1c(=O)c2ccccc2n2c(SCC(=O)c3ccccc3)nnc12,–,"inconclusive: 25.1 µM [inhibitor, partial curve, poor fit]"
Cc1ccc(-n2cc3c(c2-c2ccccc2Br)c(=O)n(C)c(=O)n3C)cc1N,inactive: -4.81%,–
Cc1cccc(C(=O)Nc2cccc(OCc3cc(=O)n4cc(C)sc4n3)c2)c1,–,"inconclusive: 6.31 µM [activator, single point]"
Cc1ccc(C)c(NC(=O)Cn2c(=O)n(-c3ccccc3C)c(=O)c3c2c2cc(C)ccc2n3C)c1,inactive: 16.7%,–
Cc1ccc(C)c(NC(=O)CSc2ccc(-c3cccs3)nn2)c1,–,"inconclusive: 31.6 µM [inhibitor, single point]"
CC(=O)N1CCc2c(sc3c2c(=O)n(-c2ccccc2C)c(=O)n3CC(=O)c2ccccc2)C1,–,"inconclusive: 15.8 µM [activator, partial curve]"
O=C(NCC(c1cccnc1)N1CCc2ccccc21)c1ccc(F)c(F)c1 (stereo not drawn),–,"inconclusive: 31.6 µM [activator, single point]"
CCOC(=O)CCN(c1ccccc1)S(=O)(=O)c1cc(-c2cc(C)no2)ccc1C,–,"inconclusive: 39.8 µM [activator, single point]"
CCOC(=O)N1CCN(Cc2nc3c(c(=O)n(C)c(=O)n3C)n2Cc2cccc(C)c2)CC1,–,"inconclusive: 31.6 µM [activator, partial curve]"
Cc1cn(C)c(CC(=O)N2CCN(c3cccc(C(F)(F)F)c3)CC2)c1C(=O)O,inactive: 16%,–
Cc1cc(N/C=C\C(=O)c2ccc(Cl)c(Cl)c2)no1,–,"inconclusive: 31.6 µM [inhibitor, single point]"
CCOc1ccccc1-c1noc(CCCC(=O)Nc2cccc(C(F)(F)F)c2)n1,–,"inconclusive: 39.8 µM [activator, single point]"
CC(/C=N/NC(=O)c1cc(-c2ccccc2)nc2ccccc12)=C\c1ccco1,–,"inconclusive: 20 µM [inhibitor, single point]"
Cn1ccc2cc(S(=O)(=O)N3CCCC(C(=O)NCc4ccc(F)cc4)C3)ccc21 (stereo not drawn),–,"inconclusive: 39.8 µM [inhibitor, single point]"
CC1CN(C(=O)c2cccc(COc3ccc(Br)cc3)c2)CC(C)O1 (stereo not drawn),–,"inconclusive: 31.6 µM [activator, single point]"
COC(=O)NC(NC(=S)Nc1ccc([N+](=O)[O-])cc1)C(Cl)(Cl)Cl (stereo not drawn),–,"inconclusive: 31.6 µM [inhibitor, single point]"
CCCCCCCCCCCC[N+](C)(C)CCOc1ccccc1,–,"inconclusive: 31.6 µM [activator, partial curve, poor fit]"
COc1ccc(-c2nc(SCC(=O)c3ccc(Br)cc3)n[nH]2)cc1,–,"inconclusive: 31.6 µM [inhibitor, single point]"

Compound,"max response, negative = inhibition",Potency
CCCc1cc(=O)oc2c(CN3CCN(C)CC3)c(O)c(Cl)cc12,–,"inconclusive: 5.01 µM [activator, single point]"
COc1cc(NC(=O)C2CCN(S(=O)(=O)c3c(C)noc3/C=C/c3cccs3)CC2)cc(OC)c1,–,active: 15.8 µM
O=C(CSc1nnc(CNC(=O)C23CC4CC(CC(C4)C2)C3)n1-c1ccc(F)cc1)Nc1ccc(F)cc1,–,"inconclusive: 20 µM [activator, single point]"
CCOC(=O)N1CCC(N2Cc3cccc(C(=O)NCc4ccc(OC)cc4)c3C2=O)CC1,–,"inconclusive: 39.8 µM [activator, single point]"
Cc1ccc(Cn2nnc3c(=O)[nH]c(C4CCN(C(=O)c5cccs5)CC4)nc32)cc1,–,"inconclusive: 31.6 µM [activator, single point]"
Cc1cc(NC(=O)c2ccc([N+](=O)[O-])cc2Cl)ccc1NC(=O)c1ccco1,–,"inconclusive: 39.8 µM [inhibitor, single point]"
CCOc1ccccc1N1CC(c2nc3ccccc3n2CCCCOc2cc(C)ccc2C)CC1=O (stereo not drawn),–,"inconclusive: 12.6 µM [activator, partial curve]"
COc1ccc(-n2nc(C(=O)NCc3ccc(F)cc3)c3c4ccccc4n(C)c3c2=O)cc1,inactive: -5.77%,–
CCn1nc(C(=O)Nc2nc3ccc(C)cc3s2)c2ccccc2c1=O,–,"inconclusive: 15.8 µM [activator, partial curve]"
COc1ccc(C2=NN(C(=O)CSc3ncccn3)C(c3ccc(OC)cc3)C2)cc1 (stereo not drawn),–,"inconclusive: 39.8 µM [activator, single point]"
COc1cc(C(=O)Nc2ccc(OCc3cc(=O)n4cccc(C)c4n3)cc2)cc(OC)c1OC,–,"inconclusive: 3.98 µM [activator, single point]"
Cc1ccc(C(=O)Oc2oc(-c3ccco3)nc2C=Nc2ccc(Cl)cc2)cc1,–,active: 12.6 µM
O=C(Nc1cccc(S(=O)(=O)N2CCCCCC2)c1)c1ccc2ccccc2n1,–,"inconclusive: 31.6 µM [inhibitor, single point]"
CCn1cc(/C=N/NC(=O)COc2cccc3cccnc23)c2ccccc21,–,"inconclusive: 31.6 µM [activator, single point]"
CC1=C(c2ccc(C)c(C)c2)S(=O)(=O)N=C1N1CCC(C(=O)N2CCCCC2)CC1,–,"inconclusive: 31.6 µM [activator, single point]"
COc1ccc(-c2ccc(S(=O)(=O)N3CCOCC3)cc2)cc1,–,"inconclusive: 39.8 µM [inhibitor, single point]"
CNc1nc(Nc2ccc(C(C)=O)cc2)nc(OC(C(F)(F)F)C(F)(F)F)n1,–,"inconclusive: 25.1 µM [activator, single point]"
O=c1c2ccccc2nc(SCc2nnc(-c3ccccc3Br)o2)n1Cc1ccco1,–,"inconclusive: 39.8 µM [inhibitor, single point]"
